# ± gives the standard deviation of the averaged measurements. Laboratory Escherichia coli strains with one amino-acid change in an essential protein, pooled on minimal glucose agar with carbenicillin or gentamicin at twice the control MIC (plus kanamycin and chloramphenicol for the plasmids), 48 h. Fold change of barcode share against drug-free plates; higher = less susceptible. Active = above 20 in both replicates (the paper's putatively resistant). '<' = one read or none on drug, '>' = one read or none on a drug-free plate. Shares are relative, so most strains fall below 1 when a few take over. Listed are strains with at least 15 reads on both drug-free plates, and hits; most hits rest on fewer reference reads. Replicate rank correlation about 0.5. Edits are read from barcodes.
# B1: cysD I269Q (protein)
# chain: MDQIRLTHLRQLEAESIHIIREVAAEFSNPVMLYSIGKDSSVMLHLARKAFYPGTLPFPLLHVDTGWKFREMYEFRDRTAKAYGCELLVHKNPEGVAMGINPFVHGSAKHTDIMKTEGLKQALNKYGFDAAFGGARRDEEKSRAKERIYSFRDRFHRWDPKNQRPELWHNYNGQINKGESIRVFPLSNWTEQDIWQYIWLENIDIVPLYLAAERPVLERDGMLMMIDDNRIDLQPGEVIKKRMVRFRTLGCWPLTGAVESNAQTLPEIQEEMLVSTTSERQGRVIDRDQAGSMELKKRQGYF
# B2: cysE V88P (protein)
# chain: MSCEELEIVWNNIKAEARTLADCEPMLASFYHATLLKHENLGSALSYMLANKLSSPIMPAIAIREVVEEAYAADPEMIASAACDIQAPRTRDPAVDKYSTPLLYLKGFHALQAYRIGHWLWNQGRRALAIFLQNQVSVTFQVDIHPAAKIGRGIMLDHATGIVVGETAVIENDVSILQSVTLGGTGKSGGDRHPKIREGVMIGAGAKILGNIEVGRGAKIGAGSVVLQPVPPHTTAAGVPARIVGKPDSDKPSMDMDQHFNGINHTFEYGDGI
# B3: cysG V408A (protein)
# chain: MDHLPIFCQLRDRDCLIVGGGDVAERKARLLLDAGARLTVNALAFIPQFTAWADAGMLTLVEGPFDESLLDTCWLAIAATDDDALNQRVSEAAEARRIFCNVVDAPKAASFIMPSIIDRSPLMVAVSSGGTSPVLARLLREKLESLLPLHLGQVAKYAGQLRGRVKQQFATMGERRRFWEKLFVNDRLAQSLANNDQKAITETTEQLINEPLDHRGEVVLVGAGPGDAGLLTLKGLQQIQQADVVVYDRLVSDDIMNLVRRDADRVFVGKRAGYHCVPQEEINQILLREAQKGKRVVRLKGGDPFIFGRGGEELETLCNAGIPFSVVPGITAASGCSAYSGIPLTHRDYAQSVRLITGHLKTGGELDWENLAAEKQTLVFYMGLNQAATIQQKLIEHGMPGEMPVAIAENGTAVTQRVIDGTLTQLGELAQQMNSPSLIIIGRVVGLRDKLNWFSNH
# B4: acpS V11A (protein)
# chain: MAILGLGTDIAEIARIEAVIARSGDRLARRVLSDNEWAIWKTHHQPVRFLAKRFAVKEAAAKAFGTGIRNGLAFNQFEVFNDELGKPRLRLWGEALKLAEKLGVANMHVTLADERHYACATVIIES
# B5: cysI L531P (protein)
# chain: MSEKHPGPLVVEGKLTDAERMKHESNYLRGTIAEDLNDGLTGGFKGDNFLLIRFHGMYQQDDRDIRAERAEQKLEPRHAMLLRCRLPGGVITTKQWQAIDKFAGENTIYGSIRLTNRQTFQFHGILKKNVKPVHQMLHSVGLDALATANDMNRNVLCTSNPYESQLHAEAYEWAKKISEHLLPRTRAYAEIWLDQEKVATTDEEPILGQTYLPRKFKTTVVIPPQNDIDLHANDMNFVAIAENGKLVGFNLLVGGGLSIEHGNKKTYARTASEFGYLPLEHTLAVAEAVVTTQRDWGNRTDRKNAKTKYTLERVGVETFKAEVERRAGIKFEPIRPYEFTGRGDRIGWVKGIDDNWHLTLFIENGRILDYPARPLKTGLLEIAKIHKGDFRITANQNLIIAGVPESEKAKIEKIAKESGLMNAVTPQRENSMACVSFPTCPLAMAEAERFLPSFIDNIDNLMAKHGVSDEHIVMRVTGCPNGCGRAMLAEVGLVGKAPGRYNLHLGGNRIGTRIPRMYKENITEPEILASPDELIGRWAKEREAGEGFGDFTVRAGIIRPVLDPARDLWD
# B6: cysS L387A (protein)
# chain: MLKIFNTLTRQKEEFKPIHAGEVGMYVCGITVYDLCHIGHGRTFVAFDVVARYLRFLGYKLKYVRNITDIDDKIIKRANENGESFVAMVDRMIAEMHKDFDALNILRPDMEPRATHHIAEIIELTEQLIAKGHAYVADNGDVMFDVPTDPTYGVLSRQDLDQLQAGARVDVVDDKRNPMDFVLWKMSKEGEPSWPSPWGAGRPGWHIECSAMNCKQLGNHFDIHGGGSDLMFPHHENEIAQSTCAHDGQYVNYWMHSGMVMVDREKMSKSLGNFFTVRDVLKYYDAETVRYFLMSGHYRSQLNYSEENLKQARAALERLYTALRGTDKTVAPAGGEAFEARFIEAMDDDFNTPEAYSVLFDMAREVNRLKAEDMAAANAMASHLRKASAVLGLLEQEPEAFLQSGAQADDSEVAEIEALIQQRLDARKAKDWAAADAARDRLNEMGIVLEDGPQGTTWRRK
# B7: dapA V40Q (protein)
# chain: MFTGSIVAIVTPMDEKGNVCRASLKKLIDYHVASGTSAIQSVGTTGESATLNHDEHADVVMMTLDLADGRIPVIAGTGANATAEAISLTQRFNDSGIVGCLTVTPYYNRPSQEGLYQHFKAIAEHTDLPQILYNVPSRTGCDLLPETVGRLAKVKNIIGIKEATGNLTRVNQIKELVSDDFVLLSGDDASALDFMQLGGHGVISVTANVAARDMAQMCKLAAEGHFAEARVINQRLMPLHNKLFVEPNPIPVKWACKELGLVATDTLRLPMTPITDSGRETVRAALKHAGLL
# Target: Escherichia coli (laboratory strain)
# Experiment: barcode share on antibiotic plates over drug-free plates; higher = less susceptible
# Settings: antibiotic: gentamicin; 2× MIC (MIC 0.45 µg/mL)
# Procedure: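 A pool of E. coli strains, each edited to carry one amino-acid change in an essential protein, was grown for 48 h on minimal glucose agar with or without antibiotic; strain barcodes were sequenced; mean of two replicates.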
row,Protein,fold change of barcode share
1,B1,1.24 ± 1.4
2,B2,< 0.0118
3,B3,0.0129 ± 0.0097
4,B4,0.0643 ± 0.084
5,B5,< 0.018
6,B6,< 0.00776
7,B7,0.0402 ± 0.042

# From the supplement of paper PMC11876631
